# The densities may have been worked out from excess volumes.
# Experiment: xn = mol fraction of the nth substance listed
# Details: 100 kPa
structure (smiles),measurement,setting,value
CCCC[n+]1ccn(C)c1.O=S(=O)([N-]S(=O)(=O)C(F)(F)F)C(F)(F)F + CCCCCCCCN1CCCC1=O,mass density,"298.15 K, x2 = 0",1433.7 kg/m3
same,mass density,"303.15 K, x2 = 0",1428.9 kg/m3
same,mass density,"308.15 K, x2 = 0",1424.1 kg/m3
same,mass density,"313.15 K, x2 = 0",1419.4 kg/m3
same,mass density,"318.15 K, x2 = 0",1414.6 kg/m3
same,mass density,"323.15 K, x2 = 0",1409.9 kg/m3
CCCCCCCCN1CCCC1=O + CCCC[n+]1ccn(C)c1.O=S(=O)([N-]S(=O)(=O)C(F)(F)F)C(F)(F)F,mass density,"298.15 K, x1 = 0.1125",1389.1 kg/m3
same,mass density,"298.15 K, x1 = 0.2205",1343.8 kg/m3
same,mass density,"298.15 K, x1 = 0.3048",1306.6 kg/m3
same,mass density,"298.15 K, x1 = 0.3915",1266.7 kg/m3
same,mass density,"298.15 K, x1 = 0.5011",1213.5 kg/m3
same,mass density,"298.15 K, x1 = 0.5983",1163.6 kg/m3
same,mass density,"298.15 K, x1 = 0.7076",1103.9 kg/m3
same,mass density,"298.15 K, x1 = 0.7976",1051.3 kg/m3
same,mass density,"298.15 K, x1 = 0.8911",992.8 kg/m3
same,mass density,"298.15 K, x1 = 1",918.5 kg/m3
same,mass density,"303.15 K, x1 = 0.2205",1339.2 kg/m3
same,mass density,"303.15 K, x1 = 0.3048",1302.1 kg/m3
same,mass density,"303.15 K, x1 = 0.5011",1209.2 kg/m3
same,mass density,"303.15 K, x1 = 0.5983",1159.4 kg/m3
same,mass density,"303.15 K, x1 = 0.7976",1047.4 kg/m3
same,mass density,"303.15 K, x1 = 0.8911",989 kg/m3
same,mass density,"303.15 K, x1 = 1",914.8 kg/m3
same,mass density,"308.15 K, x1 = 0.1125",1379.8 kg/m3
same,mass density,"308.15 K, x1 = 0.2205",1334.7 kg/m3
same,mass density,"308.15 K, x1 = 0.3048",1297.7 kg/m3
same,mass density,"308.15 K, x1 = 0.5983",1155.3 kg/m3
same,mass density,"308.15 K, x1 = 0.7076",1095.9 kg/m3
same,mass density,"308.15 K, x1 = 0.7976",1043.5 kg/m3
same,mass density,"308.15 K, x1 = 0.8911",985.2 kg/m3
same,mass density,"313.15 K, x1 = 0.1125",1375.2 kg/m3
same,mass density,"313.15 K, x1 = 0.3048",1293.2 kg/m3
same,mass density,"313.15 K, x1 = 0.3915",1253.5 kg/m3
same,mass density,"313.15 K, x1 = 0.5011",1200.7 kg/m3
same,mass density,"313.15 K, x1 = 0.5983",1151.2 kg/m3
same,mass density,"313.15 K, x1 = 0.7076",1091.9 kg/m3
same,mass density,"313.15 K, x1 = 0.7976",1039.6 kg/m3
same,mass density,"313.15 K, x1 = 0.8911",981.4 kg/m3
same,mass density,"313.15 K, x1 = 1",907.5 kg/m3
same,mass density,"318.15 K, x1 = 0.1125",1370.5 kg/m3
same,mass density,"318.15 K, x1 = 0.2205",1325.6 kg/m3
same,mass density,"318.15 K, x1 = 0.3048",1288.8 kg/m3
same,mass density,"318.15 K, x1 = 0.3915",1249.2 kg/m3
same,mass density,"318.15 K, x1 = 0.5011",1196.5 kg/m3
same,mass density,"318.15 K, x1 = 0.5983",1147.1 kg/m3
same,mass density,"318.15 K, x1 = 0.7076",1087.9 kg/m3
same,mass density,"318.15 K, x1 = 0.7976",1035.8 kg/m3
same,mass density,"318.15 K, x1 = 0.8911",977.6 kg/m3
same,mass density,"318.15 K, x1 = 1",903.8 kg/m3
same,mass density,"323.15 K, x1 = 0.1125",1365.9 kg/m3
same,mass density,"323.15 K, x1 = 0.2205",1321.1 kg/m3
same,mass density,"323.15 K, x1 = 0.3048",1284.3 kg/m3
same,mass density,"323.15 K, x1 = 0.3915",1244.8 kg/m3
same,mass density,"323.15 K, x1 = 0.5011",1192.2 kg/m3
same,mass density,"323.15 K, x1 = 0.5983",1143 kg/m3
same,mass density,"323.15 K, x1 = 0.7076",1084 kg/m3
same,mass density,"323.15 K, x1 = 0.7976",1031.9 kg/m3
same,mass density,"323.15 K, x1 = 1",900.2 kg/m3

# — a compilation of properties of binary mixtures (doi:10.1016/j.molliq.2016.06.018)
